One assay concerns NCI-H292 NSCLC cells. Description: In vitro cytotoxic assay for huML66-90, NCI-H292. The conditions noted are these: for NCI-H292 EC40 in pM: NCI-H292 cells. The assay is classed as cell-based. As to the method: (§1) The ability of huML66-90 conjugate to inhibit cell growth was measured using in vitro cytotoxicity assays. Target cells were plated at 1-2,000 cells per well in 100 μL in complete RPMI media (RPMI-1640, 10% fetal bovine serum, 2 mM glutamine, 1% penicillin-streptomycin, all reagents from Invitrogen). Antibodies were diluted into complete RPMI media using 3-fold dilution series and 100 μL were added per well. The final concentration typically ranged from 3×10^-8 M to 4.6×10-12 M. Cells were incubated at 37° C. in a humidified 5% CO2 incubator for 5-6 days. Viability of remaining cells was determined by colorimetric WST-8 assay (Dojindo Molecular Technologies, Inc., Rockville, Md., US). WST-8 is reduced by dehydrogenases in living cells to an orange formazan product that is soluble in tissue culture medium. The amount of formazan produced is directly proportional to the number of living cells. WST-8 was added to 10% of the final volume and plates were incubated at 37° C. in a humidified 5% CO2 incubator for an additional 2-4 hours. Plates were analyzed by measuring the absorbance at 450 nm (A450) in a multiwell plate reader. Background A450 absorbance of wells with media and WST-8 only was subtracted from all values. The percent viability was calculated by dividing each treated sample value by the average value of wells with untreated cells. Percent viability=100*(A450 treated sample−A450 background)/(A450 untreated sample−A450 background). The percent viability value was plotted against the antibody concentration in a semi-log plot for each treatment. Dose-response curves were generated by non-linear regression and the EC50 value of each curve was calculated using GraphPad Prism (GraphPad software, San Diego, Calif.). In vitro cytotoxic activity

In assay [1] the test system is NCI-H1703 NSCLC xenografts. The assay can be described thus: Antitumor activity against NCI-H1703 NSCLC xenografts (Example 33). The format is in vivo, mouse. Conditions: SCID mice. The method, then: Female CB.17 SCID mice, 6 weeks old, were received from Charles River Laboratories. Mice were inoculated with 5×10^6 NCI-H1703 tumor cells suspended in 0.2 ml 50% matrigel/serum free medium by subcutaneous injection in the right flank. When tumor volumes reached approximately 100 mm^3 (day 16 post inoculation), animals were randomized based on tumor volume into 4 groups of 6 mice each. Mice received a single IV administration of vehicle control (0.1 ml/mouse) or huML66-90 conjugate at 5, 20 or 50 μg/kg based on compound 90 concentration on day 1 (day 17 post inoculation).
Tumor size was measured twice to three times weekly in three dimensions using a caliper. The tumor volume was expressed in mm^3 using the formula V=Length×Width×Height×½. A mouse was considered to have a partial regression (PR) when tumor volume was reduced by 50% or greater, complete tumor regression (CR) when no palpable tumor could be detected. Tumor volume was determined by StudyLog software.
Tumor growth inhibition (T/C Value) was determined using the following formula:
T/C (%)=Median tumor volume of the treated/Median tumor volume of the control×100.
Tumor volume was determined simultaneously for treated (T) and the vehicle control (C) groups when tumor volume of the vehicle control reached predetermined size of 1000 mm^3. The daily median tumor volume of each treated group was determined, including tumor-free mice (0 mm^3). According to NCI standards, a T/C≤42% is the minimum level of anti-tumor activity. A T/C<10% is considered a high anti-tumor activity level.

The test system of a further assay is Detroit-562 SCC-HN cells. Description: In vitro cytotoxic assay for huML66-90, Detroit-562. The format is cell-based. The conditions noted are these: presence of excess unconjugated antibody. As to the method:
as §1, with “WST-8 was added to 10% of the final volume and plates were incubated at 37° C. in a humidified 5% CO2 incubator for an additional 2-4 hours.” left out, “Percent viability=100*(A450 treated sample−A450 background)/(A450 untreated sample−A450 background). The percent viability value was plotted against the antibody concentration in a semi-log plot for each treatment.” left out, “In vitro cytotoxic activity” left out

The term EC50 denotes the concentration that produces a half-maximal response.

B1: huML66-90 (conjugate)
heavy: QVQLQESGPGLVKPSETLSLTCTVSGLSLASNSVSWIRQPPGKGLEWMGVIWNHGGTDYNPSIKSRLSISRDTSKSQVFLKMNSLTAADTAMYFCVRKGGIYFDYWGQGVLVTVSS[gap - human IgG1 constant region]
light: DTVLTQSPSLAVSPGERATISCRASESVSTLMHWYQQKPGQQPKLLIYLASHRESGVPARFSGSGSGTDFTLTIDPMEAEDTATYYCQQSRNDPWTFGQGTKLELKRTVAAPSVFIFPPSDEQLKSGTASVVCLLNNFYPREAKVQWKVDNALQSGNSQESVTEQDSKDSTYSLSSTLTLSKADYEKHKVYACEVTHQGLSSPVTKSFNRGEC
With B1, the concentration for a half-maximal effect (EC50) is roughly 2 nM with NCI-H292 NSCLC cells (NCI-H292 NSCLC cells, presence of excess unconjugated antibody) and roughly 2 nM in the assay with Detroit-562 SCC-HN cells. The “NCI-H292 EC40 in pM” value in the assay with NCI-H292 NSCLC cells (5-6 days, WST-8, no block (Table 1)) is 12 pM; with NCI-H292 NSCLC cells (+ block (excess unconjugated antibody) (Table 1)), 1,570 pM. The anti-tumor activity level result in assay [1] (single IV dose 20 μg/kg) and in assay [1] (single IV dose 50 μg/kg) was “highly active (A T/C<10% is considered a high anti-tumor activity level)” throughout. Moreover, the “minimal effective dose (MED)” value in assay [1] (single IV dose) is 0.02 mg/kg.

The values above are taken from patent US20230233697A1, “CYTOTOXIC BENZODIAZEPINE DERIVATIVES” (priority 2014, published 2023).
